Laboratory results as given in article PMC12136788.
The other results are listed elsewhere or left out.

T1: UNK ZnF1-3 (human, UniProt Q9C0B0 31-174)
T1 sequence: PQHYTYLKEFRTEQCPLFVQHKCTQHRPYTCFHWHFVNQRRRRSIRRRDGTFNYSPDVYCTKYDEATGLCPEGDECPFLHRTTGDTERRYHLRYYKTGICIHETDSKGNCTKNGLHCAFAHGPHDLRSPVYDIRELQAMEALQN

B1: chr1:46159212:46159213:+_ENSG00000159596_ENST00000372025|hu_mus|hu_hu_hu_mus_True|48_88 (ssRNA)
RNA: GGGAGUUCUACAGUCCGACGAUCUCUGAUCCCUCCCAAGAAAGCUAGGAAACUGGCUCCAUAAGCCAUCUGAGUGAAAGCUAGGACGGGAAUAUAAGACUUUGUUAUUACCAUGAGAAGUGGGGGAGCAGUAAAGGGGAUUAACAACAGAGGAUUGAGCAUCA
B2: chr11:47650564:47650565:-_ENSG00000109919_ENST00000530428|hu_hu|motif|central (ssRNA)
RNA: GGGAGUUCUACAGUCCGACGAUCAUAGGUAUUGACGAGGUAGGCCAGUGAGUUACACAGCCACAAAGAAAGGAUGUCACCGGGAAGGCGAGGAACAAGACCCGCGAAAAAUCCUAGAAUGCCCUCUUCCCGAUAGAUGGUUAUCAACAGAGGAUUGAGCAUCA
B3: chr3:55303971:55303972:+_ENSMUSG00000027797_ENSMUST00000054237|mus_mus|FALSE|FALSE (ssRNA)
RNA: GGGAGUUCUACAGUCCGACGAUCGCCGUCGACAAUUGUGGCCAGGCCAAAGUCACCCAACUUGAGUGACUUACUGCCAUCCUGGUGCUCAUACACCAGCAGAUUCUCUGGCUUGAUGUCACGGUGGACGAUGUUCAGGCUGUGCAACAGAGGAUUGAGCAUCA
B4: chr8:95500983:95500984:-_ENSG00000164944_ENST00000437199|hu_hu|hu_hu_hu_mus_True|8_38 (ssRNA)
RNA: GGGAGUUCUACAGUCCGACGAUCAGAACACAUCUAUCGAGUAAAGGACCGUACAUGACGGCCUCUACCACUGCCUCCACUAACAAACUUUCCUCUCUGAGCCUCCAUGCCGCUAUUUGUACUAGCCCCAGGAAGGUCCAGGCCCAACAGAGGAUUGAGCAUCA
B5: chr7:149068622:149068623:-_ENSMUSG00000025139_ENSMUST00000001950|mus_hu|mus_mus_mus_hu_False|58_58 (ssRNA)
RNA: GGGAGUUCUACAGUCCGACGAUCGUGAGGCCUCUGAGUGUGGCUUGUGGUCUGUCCUGGGUUAGAGUUGUUAAUAUCACUAAGUGGACCAUCUAGAACGUUCCAGUCCCGCCUGACACCUUCAUUCCCAAUGGAGAAGAAAUCCAACAGAGGAUUGAGCAUCA
B6: chr8:74858975:74858976:-_ENSG00000154582_ENST00000284811|hu_mus|hu_hu_hu_mus_True|8_18 (ssRNA)
RNA: GGGAGUUCUACAGUCCGACGAUCGACCUUGUAGGUAAAAUACAUGCACACUUUUGAUAGCACAUGUGAGGGGAUCUCUCUAAAAUUGACCUCGUUGGUUUCAUUCUCAGCAAACUGACCUGGGCCACUCAACAUGGCCUUUAUCAACAGAGGAUUGAGCAUCA
B7: chr9:82769708:82769709:-_ENSMUSG00000032253_ENSMUST00000034787|mus_hu|FALSE|FALSE (ssRNA)
RNA: GGGAGUUCUACAGUCCGACGAUCAAAAGUCUUUGCAGCUGAAGAAGUAGAUGGUUGCUCAGUGACAACUGGAUCUACAACCACUCGGUUGCUUCUGGUUCGAACCACAGAACUAGAUUCUGUUUUACCGUUUAUCUGAGCAGCCAACAGAGGAUUGAGCAUCA
B8: chr5:68473423:68473424:+_ENSG00000134057_ENST00000507798|hu_hu|FALSE|FALSE (ssRNA)
RNA: GGGAGUUCUACAGUCCGACGAUCCUCCAACUCAAGUUUACAAGUUACACCUUUGCCACAGCCUUGGCUAAAUCUUGAACUAGUGCAGAAUUCAGCUGUGGUAGAGUGCUGAUCUUAGCAUGCUUCGAUGUGGCAUACUUGUUCCAACAGAGGAUUGAGCAUCA
B9: chr8:141525804:141525805:+_ENSG00000104472_ENST00000220913|hu_hu|motif|central (ssRNA)
RNA: GGGAGUUCUACAGUCCGACGAUCGUAGAAAAAUAUCUGAACAGUCAACUUUUCUUAAGACAAAAAUUCAAAUGUAACAUACGGCCGGAACUAUAAAUUUAGCUAAAACUGAAUCGAGCUGUUUAUAAGAACUGAUUCCAAAAUCAACAGAGGAUUGAGCAUCA
B10: chr16:94651144:94651145:+_ENSMUSG00000040785_ENSMUST00000117648|mus_hu|mus_mus_mus_hu_True|8_58 (ssRNA)
RNA: GGGAGUUCUACAGUCCGACGAUCAUUUUCUUGAAUCAAGUGGCGAAUAACAUAGUCCACUGCUUCAUUUAGAAAAUUUUUGCUAGAAAAACAGGUUGUAUAGUCUUCUGUGCUCAAAACUUUCCAAGAGAGCAGCUCUUUGAGCAACAGAGGAUUGAGCAUCA
B11: chr11:93905761:93905762:+_ENSMUSG00000020859_ENSMUST00000103168|mus_hu|motif|central (ssRNA)
RNA: GGGAGUUCUACAGUCCGACGAUCAGCUGGCACACCGGUAGAAAUAGAAAAGUGCACAAGCAGCAAAACAGAGAGAGAUACGGAGAUAGCAGAAUUAAUGACCACCGCCCCGCCAACAAAGCCAAACACAAACAGCAGCAUGCACAACAGAGGAUUGAGCAUCA
B12: chr3:10015032:10015033:+_ENSMUSG00000027533_ENSMUST00000029046|mus_mus|mus_mus_mus_hu_True|98_108 (ssRNA)
RNA: GGGAGUUCUACAGUCCGACGAUCGUUGUUGCCAUCACACGUAAUGAUACAAUCUGGCUUGGCCAUUGCGCCCAUUUUUCGCAAAGCUAUUCCCACUCCUAGCUCCUUCAUGUAUUCAUCAAAGCCUUUGCUGUCCACCAGGCGCAACAGAGGAUUGAGCAUCA
B13: chr8:98253062:98253063:-_ENSMUSG00000036550_ENSMUST00000098473|mus_mus|FALSE|FALSE (ssRNA)
RNA: GGGAGUUCUACAGUCCGACGAUCGGUUUCCAACACAUGCUCGGGUGCAUUGAGCUCCAACAGCAGCAUGAUAAAAAUCCUAUGGUACGGAAGUUGCUGAAAUUCACUCUGCCGAACAUCAUGAUCCUGUAGGAGAACUCCCACCAACAGAGGAUUGAGCAUCA
B14: chr11:113085134:113085135:+_ENSG00000149294_ENST00000316851|hu_hu|motif|central (ssRNA)
RNA: GGGAGUUCUACAGUCCGACGAUCGGUGAUGGAGGGAAUGGGGUCUCCGGAGGCUUCACAGGUAAGAGUGACCUGCUCCUCGGAUUCCAUGGCAGUCUGGUUCUCUACAUAUGUGAUUUUGGGUUUUGCAAAGACUUUGAGGUGCAACAGAGGAUUGAGCAUCA

target: T1, UNK ZnF1-3; experiment: nsRBNS (natural sequence RNA bind-n-seq); RBNS binding buffer (assumed for nsRBNS): 25 mM Tris pH 7.5, 150 mM KCl, 3 mM MgCl2, 0.01% Triton X-100, 500 ug/ml BSA, 20 U/ml SUPERase-In, 4 C; UNK is unkempt and MSI1 is Musashi-1; names of the RNAs are library labels; protein concentration not given here; high values mean tight binding

**Q.** B1 was tested. Which binding signal did it give?
**A.** Its binding signal is 1.3 enrichment R.

**Q.** With B2 as the binder, how does the binding signal read?
**A.** Its binding signal is 0.995 enrichment R.

**Q.** With B3 as the binder, how does the binding signal read?
**A.** Its binding signal is 0.581 enrichment R.

**Q.** How did the binding signal turn out when B4 was run?
**A.** Its binding signal is 0.887 enrichment R.

**Q.** How did the binding signal turn out when B5 was run?
**A.** Its binding signal is 0.826 enrichment R.

**Q.** Which binding signal does the source give for B6 here?
**A.** The binding signal was 0.566 enrichment R.

**Q.** Which binding signal does the source give for B7 here?
**A.** Its binding signal is 0.582 enrichment R.

**Q.** How did the binding signal turn out when B8 was run?
**A.** Its binding signal is 0.36 enrichment R.

**Q.** For B9, which binding signal is on record?
**A.** Its binding signal is 1.11 enrichment R.

**Q.** How did the binding signal turn out when B10 was run?
**A.** The binding signal was 0.69 enrichment R.

**Q.** For B11, which binding signal is on record?
**A.** The binding signal was 2.55 enrichment R.

**Q.** B12 was tested. Which binding signal did it give?
**A.** Its binding signal is 0.784 enrichment R.

**Q.** With B13 as the binder, how does the binding signal read?
**A.** Its binding signal is 1.04 enrichment R.

**Q.** Which binding signal does the source give for B14 here?
**A.** The binding signal was 0.814 enrichment R.
